From the RNAGym collection of RNA variant scans (doi:10.7554/elife.90254) come the findings set out here.

B1: LINE1-full (parent)
chain: UACGUAGGUGGUUUUCCCCUGAUAGUGCUAAGGGGGCCUGGAAGUUUGGACUGGGCAGAGCUCAACACAGCGUGGCAAAGUGGCUGUGGCUAGACUGCCUCUCUGGAUUCCUCGUCACUCAGCAGGGCAUCUCUGAGAGAAAUGCC

The source gives no read counts; variants with many changes may rest on few reads.

The variants in this data set derive from B1. The data set is described as follows: self-cleavage, relative activity (ratio to wild type); higher = more cleavage; in vitro, sequencing; the parent is a self-cleaving ribozyme.
Consider UACGUAGGUGGUUUUCCCCUGAUAGUGCUAAGGGGGCCUGGAAGUUUGGACUGGGCGGAGCUCAACACAGCGUGGCGAAGUGGCUGUGGCUAGACUGCCUCUCUGGAUUCCUCGUCACUCAGCAGGGCAUCUCUGAGGGAAAUGCC [A57G A77G A138G], for which the self-cleavage came to 0.71. With UACGUAGGUGGUUUUCCCCUGAUAGUGCUAAGGGGGCCUGGAAGUUUGGACUGGGCGGAGCUCAACACAGCGUGGCAAGGUGGCUGUGGCUAGACUGCCUCUCUGGAUUCCUCGUCACUCAGCAAGGCAUCUCUGAGAGAAAUGCC [A57G A79G G125A], the self-cleavage worked out at 0.46. Take UACGUAGGUGGUUUUCCCCUGAUAGUGCUAAGGGGGCCUGGAAGUUUGGACUGGGCGGAGCUCAACACAGCGUGGCGAAGUGGCUGUGGCUAGACUGCCUCUCUGUAUUCCUCGUCACUCAGCAAGGCAUCCCUGAGAGAAAUGCC [A57G A77G G106U G125A U132C]: the self-cleavage amounted to 1.29. On to UACGUAGGUGGUUUUCCCCUGAUAGUGCUAAGGGGGCCUGGAAGUUUGGACUGGGCGGAGCUCAACACAGCGUGGCAAAGUGACUGUGGCUAGACUGCCUCUCUGGAUUCCUCGUCACUCAGCAGGGCAUCCCUGAGAGAAAUGCC [A57G G83A U132C], for which the self-cleavage came to 0.43. The figure for UACGUAGGUGGUUUUCCCCUGAUAGUGCUAAGGGGGCCUGGAAGUUUGGACUGGGCGGAGCUCAACACAGCGUGGCUAAGUGGCUGUGGCUAGACUGCCUCUCUGGAUUCCUCGUCACUCAGCAGGGCAUCUCUGAGGGAAAUGCC [A57G A77U A138G] is 0.49. As to UACGUAGGUGGUUUUCCCCUGAUAGUGCUAAGGGGGCCUGGAAGUUUGGACUGGGCGGAGCUCAACACAGCGUGGCAAAGUGGCGGUGGCAAGACUGCCUCUCUGGAUUCCUCGUCACUCAGCAGGGCAUCUCCGAGAGAAAUGCC [A57G U85G U91A U134C], the self-cleavage was found to be 0. Regarding UACGUAGGUGGUUUUCCCCUGAUAGUGCUAAGGGGGCCUGGAAGUUUGGACUGGGCGGAGCUCAACACAGCGUGGCAAAGCGGCUGUGGCUAGACUGUCUCUCUGGAUUCCUCGUCACUCAGCAGGGCAUCUCUGAGAGAAAUGCC [A57G U81C C98U], the self-cleavage turned out to be 0.12. The figure for UACGUAGGUGGUUUUCCCCUGAUAGUGCUAAGGGGGCCUGGAAGUUUGGACUGGGCGGAGCUCAACACAGCGCGGCAAAGUGGCUGUGGCUAGACUGCCUCUCUGGAUUCCUCGUCUCCCAACAGGGCAUCUCUGAGAGAAAUGCC [A57G U73C A117U U119C G122A] is 1.74; for UACGUAGGUGGUUUUCCCCUGAUAGUGCUAAGGGGGCCUGGAAGUUUGGACUGGGCGGAGCUCAACACAGCGUGGCAAGGUGGCUGUGGCUAGUCUGCCUCUCUGGAUUCCUCGUCACUCAGCAGGGCAUCUCUGAGAGAAAUGCC [A57G A79G A94U] it is 0.5. Next, UACGUAGGUGGUUUUCCCCUGAUAGUGCUAAGGGGGCCUGGAAGUUUGGACUGGGCGGAGCUCAACACAGCUUGGCAAAGUGGCUGUGGCUAGACUGCCUCUCUGGAUUCCUCGUCACUCAGCAGGGCACCUCUGAGAGAAAUGCC [A57G G72U U130C]: 0.67; UACGUAGGUGGUUUUCCCCUGAUAGUGCUAAGGGGGCCUGGAAGUUUGGACUGGGCGGAGCUCAACACAGCGUGGCAAGGUGGCUGUGGCUAGACUGCCUCUCUGGAUUCCUCGACACUCAGCAGGGCAUCUCUGAGAGAAAUGCC [A57G A79G U115A]: 1.15; UACGUAGGUGGUUUUCCCCUGAUAGUGCUAAGGGGGCCUGGAAGUUUGGACUGGGCGGAGCUCAACACAACGUGGCAGAGUGGCUGUGGCUAGACUGCCUCUCUGGAUUCCUCGUCACUCAGCAGGGCAUCUCUGAGAGAAAUGCC [A57G G70A A78G]: 0.06. The figure for UACGUAGGUGGUUUUCCCCUGAUAGUGCUAAGGGGGCCUGGAAGUUUGGACUGGGCGGAGCUCAACACAGCGUGGCAAAGUGGCUGUGGCUAGACUGCCUCUCUGGAUUCCUAGUCACUCAGCAGGGCAUCACUGUGAGAAAUGCC [A57G C113A U132A A136U] is 0.95; for UACGUAGGUGGUUUUCCCCUGAUAGUGCUAAGGGGGCCUGGAAGUUUGGACUGGGCGGAGCUCAACACAGCGAGGCUAAGUGGCUGUGGCUAGACUGCCUCUCUGGAUUCCUCGUCACUCAGCAGGGCAUCUCUGAGAGGAAUGCC [A57G U73A A77U A140G] it is 0.18; for UACGUAGGUGGUUUUCCCCUGAUAGUGCUAAGGGGGCCUGGAAGUUUGGACUGGGCGGAGUUCAACACAGCGUGGCAAAGUGGCUGUGGCUAGACUGCCUCUCUGGAUUCCUCGUCUCUCAGCAGGGCAUCUCUGAGAGAAAUGCC [A57G C61U A117U] it is 0.07. UACGUAGGUGGUUUUCCCCUGAUAGUGCUAAGGGGGCCUGGAAGUUUGGACUGGGCGGAGCUCAACACAGCGAGGCAAAGUGGCUGUGGCUAGACUGCCUCUCUGGAUUCCUCGCCACUCAGCAGGGCAUCCCUGAGAGAAAUGCC [A57G U73A U115C U132C]: the self-cleavage came out at 0.72. Regarding UACGUAGGUGGUUUUCCCCUGAUAGUGCUAAGGGGGCCUGGAAGUUUGGACUGGGCGGAGCUCAACACAGCGUGGCAAAGAGGCUGUGGCUAGACUGCCUCUCUGGAUUCCUCGUCACUCAGCAGGGCAUCUCUGAGAGAUAUGCC [A57G U81A A141U], the self-cleavage was 0.93. Next, UACGUAGGUGGUUUUCCCCUGAUAGUGCUAAGGGGGCCUGGAAGUUUGGACUGGGCGGAGCCCAACACAGCGUGGCAAAGUGGCUGUGGCUAGACUGCCUCUCUGGAUUCCUCGUCACUCAGCAGGGCUUCUCUGAGUGAAAUGCC [A57G U62C A129U A138U]: 0.1; UACGUAGGUGGUUUUCCCCUGAUAGUGCUAAGGGGGCCUGGAAGUUUGGACUGGGCGGAGCUCAACACAGCGAGGCAAAGUGGCUGUGGCUAGACUGCCUCUCUGGAUUCCUCGACACUCAGCAGGGCAUCUCUGAGAGAAAUGCC [A57G U73A U115A]: 0.34.

As to UACGUAGGUGGUUUUCCCCUGAUAGUGCUAAGGGGGCCUGGAAGUUUGGACUGGGCGGAGCUCAACACAGCGUGGCAAAGUGGCUGUGGCUAGGCUGCCUCUCUGGAUUCCUCGUGACUCAGCAGGGCAUCUCUGAGAGAAAUGCC [A57G A94G C116G], the self-cleavage worked out at 0.09. Next, UACGUAGGUGGUUUUCCCCUGAUAGUGCUAAGGGGGCCUGGAAGUUUGGACUGGGCGGAGCUCAACACAGCGUGGCAAAGUGGCUGUGGCUAGACUGCCUCUCUGGGUUCCUCGUCACACAGCAGGGCAUCUCUGAGAGAAAUGCC [A57G A107G U119A]: 1.21; UACGUAGGUGGUUUUCCCCUGAUAGUGCUAAGGGGGCCUGGAAGUUUGGACUGGGCGGAGCUCAACACAGCGUGGCAAAGUGGCUGAGGCUAGACUGCCUCUCUGGAUUCCUCGUCACUCAGCAGGGCAUCUCUGUGAGAAAUGCC [A57G U87A A136U]: 0.09. Take UACGUAGGUGGUUUUCCCCUGAUAGUGCUAAGGGGGCCUGGAAGUUUGGACUGGGCGGAGCUCAACACAGCGUGGCAAAGUGGCUGAGGCUAGACUGCCUCUCUGGAUUCCUCGUCACUCAGCAGGGCAUCUCUGAGGGAAAUGCC [A57G U87A A138G]: the self-cleavage turned out to be 0.08. The figure for UACGUAGGUGGUUUUCCCCUGAUAGUGCUAAGGGGGCCUGGAAGUUUGGACUGGGCGGAGCUCAACACAGUGUGGCAAAGUGGCUGUGGCUAGACUGCCUCUCUGGAUUCCUCGUCACUCAGCAGGGCAUUUCUGAGAGAAAUGCC [A57G C71U C131U] is 0.55; for UACGUAGGUGGUUUUCCCCUGAUAGUGCUAAGGGGGCCUGGAAGUUUGGACUGGGCGGAGCCCAACACAGCGUGGCAAAGUGGCUGUGGCUAGACUGCCUCUCUGGAUUCCUCGUCACUCAGCAGGGCAUCUCCGAGAGAAAUGCC [A57G U62C U134C] it is 0.24; for UACGUAGGUGGUUUUCCCCUGAUAGUGCUAAGGGGGCCUGGAAGUUUGGACUGGGCGGAGCUCAACACAGCGUGGCAAAGUGGCUGUGGCUAGACUGCCUCUCUGGAUUCCUCGUCACUCAGCUGGGCAUCCCUGAGAGAAAUGCC [A57G A124U U132C] it is 1.72. Regarding UACGUAGGUGGUUUUCCCCUGAUAGUGCUAAGGGGGCCUGGAAGUUUGGACUGGGCGGAGCUCAACACAGCGUGGCAAAGUGGCUGUGGCUAGACUGCCUCUCUGGGUUCCUCGUCGCUCAGCAGGGCAUCUCUGAGAGAAAUGCC [A57G A107G A117G], the self-cleavage amounted to 0. Turning to UACGUAGGUGGUUUUCCCCUGAUAGUGCUAAGGGGGCCUGGAAGUUUGGACUGGGCGGAGCUCAACACUGCGUGGCAAAGUGGCUGUGGCUAGACUGCCUCUCUGGUUUCCUCGUCACUCAGCAGGGCAUCUCUGAGAGAAAUGCC [A57G A69U A107U], the self-cleavage stood at 0.03. The figure for UACGUAGGUGGUUUUCCCCUGAUAGUGCUAAGGGGGCCUGGAAGUUUGGACUGGGCGGAGCUCAACACAGCGUGGCAAAGUGGCUGUGGCCAGUCUGCCUCUCUGGAUUCCUCGUCACUCAGCAGGGCAUCUCUGAGGGAAAUGCC [A57G U91C A94U A138G] is 0. As to UACGUAGGUGGUUUUCCCCUGAUAGUGCUAAGGGGGCCUGGAAGUUUGGACUGGGCGGAGCUCAACACGGCGUGGCAAGGUGGCUGUGGCUAGACUGCCUCUCUGGAUUCCUCGUCACUCAGCAGGGCAUCCCUGAGAGAAAUGCC [A57G A69G A79G U132C], the self-cleavage came out at 0.

In the case of UACGUAGGUGGUUUUCCCCUGAUAGUGCUAAGGGGGCCUGGAAGUUUGGACUGGGCGGAGCUCAACACAGCGUGGCAAAGCGGCUGUGGCUAGACAGCCUCUCUGGAUUCCUCGUCACUCAGCAGGGCAUCUCUGAGAGAAAUGCC [A57G U81C U96A], the self-cleavage stood at 0. Take UACGUAGGUGGUUUUCCCCUGAUAGUGCUAAGGGGGCCUGGAAGUUUGGACUGGGCGGAGCUCAACACAGCGUGGCAAGGUGACCGUGGCUAGACUGCCUCUCUGGGUUCCUCGUCACUCAGCAGGGCAUCUCUGAGAGAAAUGCC [A57G A79G G83A U85C A107G]: the self-cleavage is 0. Next, UACGUAGGUGGUUUUCCCCUGAUAGUGCUAAGGGGGCCUGGAAGUUUGGACUGGGCGGAGCUCAACACAGCGUGGCAAAGUGGCUGUGGCUAGACUGCCUCUAUGGAUUCCUCGUCACUCAGCAGGGCGUCUCUGAGAGAAAUGCC [A57G C103A A129G]: 0.77.

Turning to UACGUAGGUGGUUUUCCCCUGAUAGUGCUAAGGGGGCCUGGAAGUUUGGACUGGGCGGAGCUCAACACAGCGUGGCAAAGUGACUGUGGCUAGACUGCCUCUCUGGAUUCCUCGGCACUCAGCAGGGCAUCUCUGAGAGAAAUGCC [A57G G83A U115G], the self-cleavage came out at 0.44. Next, UACGUAGGUGGUUUUCCCCUGAUAGUGCUAAGGGGGCCUGGAAGUUUGGACUGGGCGGAGCUCAACACAGCGUGGCAAAGUGGCUGUGGCUAGACUGCCUCUCUGGAUUCCUCGUCACUCAGCAGGGCUUCUCCGAGAGAAAUGCC [A57G A129U U134C]: 1.22; UACGUAGGUGGUUUUCCCCUGAUAGUGCUAAGGGGGCCUGGAAGUUUGGACUGGGCGGAGCUCAACACAGCGUAGCAAAGUGGCUGUGGCUAGACAGCCUCUCUGGAUUCCUCGUCACUCAGCAGGGCAUCUCUGAGAGAAAUGCC [A57G G74A U96A]: 0.05; UACGUAGGUGGUUUUCCCCUGAUAGUGCUAAGGGGGCCUGGAAGUUUGGACUGGGCGGAGCUCAACACAGCGUGGCGAAGUGGCUGUGGCUAGACUGCCUCUCUGGAUUCCUCGUCACUCAGCAGGGCGUCUCUGAGAGAAAUGCC [A57G A77G A129G]: 0.96. In the case of UACGUAGGUGGUUUUCCCCUGAUAGUGCUAAGGGGGCCUGGAAGUUUGGACUGGGCGGAGCUCAACACAGCGUGGCAAAGUGGUUGUGGCUAGACUGCCUCUCUGGAUUCCUCGUCACCCAGCAGGGCAUCUCUGAGAGAAAUGCC [A57G C84U U119C], the self-cleavage stood at 0.

With UACGUAGGUGGUUUUCCCCUGAUAGUGCUAAGGGGGCCUGGAAGUUUGGACUGGGCGGAGCGCAGCACAGCGUGGCAAAGUGGCUGUGGCUAGACUGCCUCUCUGGAUUCCUCGACACUCAGCAGGGCAUCUCUGAGAGAAAUGCC [A57G U62G A65G U115A], the self-cleavage amounted to 0.
